PubChem BioAssay AID1508623 (National Center for Advancing Translational Sciences (NCATS), 2021)
The campaign covered roughly 48,000 compounds. About 450 (0.94%) were called active. About 19% were inconclusive and are not listed. The call rests on the fitted dose curve; in most records, active means well fitted inhibition curve with a large enough effect; inconclusive means small, poorly fitted or top-dose-only effect; inactive means no such curve, though single readings can be large or run the other way. The list shows a part of the results.

Assay: Primary qHTS for Identification of Small Molecule Inhibitors of Huntingtin Promoter Activity; further: nearly all actives have a fitted effect of over 50% in size
Conditions: HEK293 HTT promoter firefly luciferase reporter (activity 0% = vehicle and -100% = no light), 24 h; series mostly up to 57.5 µM; activity change, negative = inhibition: at the top concentration
Summary of the method: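 HEK293 luciferase promoter-reporter cells (2,500/well) plated 24 h, then compounds added at up to 57.5 uM final for 24 h at 37 °C. Firefly luminescence by Dual-Glo, normalized to vehicle (0%) and zero RLU (-100%).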

Activity change, negative = inhibition, inactive:
O=C(NCCCN1CCN(c2ccccc2F)CC1)c1cc2c(Cl)nc3ccccc3c2s1 -21.3%, CCCCCOc1ccc(NC(=O)Cc2csc(C)n2)cc1 -6.48%, Cc1nnc(SCc2ccccc2Cl)c2cc3sccc3n12 28.4%, O=C(Nc1sc2c(c1C(=O)Nc1ccc(Cl)cc1)CCCC2)c1cccs1 -14.2%, Cc1cc(Nc2cc(N3CCN(C)CC3)nc(Sc3ccc(NC(=O)C4CC4)cc3)n2)n[nH]1 -8.35%, Cc1ccc(CN2COc3cc(C)c4c(oc(=O)c5ccccc54)c3C2)cc1 -9.33%, CCOc1ccc(NC(=O)c2cnn(-c3ccc(C)c(Cl)c3)c2C2CCNCC2)cc1 -8.7%, Cc1ccc2[nH]c(C(=O)Nc3ccccc3)cc2c1 23.1%, CCOc1cc(C2NC(=O)c3c(sc4c3CCN(C)C4)N2)ccc1OC(=O)c1ccccc1Cl (centres undefined) -30.7%, Cc1ccc(S(=O)(=O)CCC(=O)Nc2ccc(Br)cc2C)cc1 -10.4%, COc1ccc(NC(=O)Cn2c(=O)cc(C)c3c(C)nn(-c4cccc(Cl)c4C)c32)cc1OC -18.7%, O=C(NC1CC(=O)N(c2ccc3c(c2)OCCO3)C1)c1c(F)cccc1Cl (centres undefined) -11.7%, CCOC(=O)c1cc(-c2ccccc2)n(CC(=O)NC2CCC(C)CC2)c1C (centres undefined) -0.835%, COCCNc1oc(-c2ccc(COc3ccc(OC)cc3)o2)nc1C#N 8.59%, Cc1ccc(-c2nn(-c3ccc(F)cc3F)c3c2cnc2c(F)cccc23)cc1 -12.2%, CCc1ccc2oc(-c3cccc(NC(=O)c4cc5ccccc5o4)c3)nc2c1 40%, Cc1nc2c(C(=O)O)cnn2c(C)c1Cc1ccccc1 4.44%, Cc1ccccc1C(=O)Nc1nc2nc(C)c(C)c(=O)n2[nH]1 -0.92%, CCCc1nn2c(=O)cc(COC(=O)c3ccc(NC(=O)CCc4ccccc4)cc3)nc2s1 -30.8%, Cc1ccc(C(=O)CSc2ncc3c(n2)-c2ccccc2N(Cc2ccc(Cl)cc2)S3(=O)=O)cc1 -20%, CC(=O)Nc1nnc(S(N)(=O)=O)s1 -0.389%, CCCCOc1ccc(C(=O)Nc2ccc(F)cc2F)cc1 -14.1%, CCCCOc1ccc(CNC(=O)c2ccc(-c3nc(CN4CCc5ccccc54)c(C)o3)cc2)cc1 -23.8%, CC(=O)Nc1c(I)cc(I)c(C(=O)O)c1I -2%, Cc1cc2cc3c(C)cc(=O)oc3c(C)c2o1 3.54%, COc1cccc(NC(=O)c2sc3nc4n(c(=O)c3c2C)CCC4)c1 80.1%, CC1=C(C(N)=O)C(c2ccc(C)cc2)n2nc(SCc3ccccc3F)nc2N1 (centres undefined) -4.81%, CC(=O)Nc1ccccc1-c1nc2ccccc2n(CC(=O)c2ccc(Br)cc2)c1=O -13.1%, COc1cccc(CNC(=O)CSc2nnc(C)c3c(C)n(-c4ccccc4)nc23)c1OC -3.54%, COC(=O)CNC(c1ccccc1)c1cc(Br)ccc1NC(=O)c1ccccc1 (centres undefined) -8.82%, COc1cccc(-n2cc(C(=O)Nc3cc(OC)c(OC)c(OC)c3)c3ccccc3c2=O)c1 -6.04%, NC1=N[C@@]2(c3cc(NC(=O)c4ccc(F)cn4)ccc3F)COC[C@@H]2CS1 -19.5%, CCc1cccc(C)c1NC(=O)C1CCN(c2nn3c(=O)cc(C)nc3s2)CC1 -11.8%, Cc1ccc2oc(=O)c3cc(C(=O)Nc4ccccc4C(N)=O)sc3c2c1 -4.8%, N#CSCC(=O)O 3.21%, Cc1onc(-c2c(F)cccc2Cl)c1C(=O)Nc1ccc(OC(C)C)cc1 -13.3%, O=C1CCCc2cc(S(=O)(=O)NCC3CCC(C(=O)NCc4ccccc4Cl)CC3)ccc2N1 (centres undefined) -25.4%, Cc1cccc(NC(=O)Nc2ccc(Br)cc2)n1 47.8%, COc1ccc(S(=O)(=O)c2c(O)c3ccc(C(=O)NCc4ccccc4)cc3[nH]c2=O)cc1 -9.95%, CCOCCCn1c(=N)c(C(=O)NCc2cccnc2)cc2c(=O)n3cc(C)ccc3nc21 4.6%, CCOC(=O)c1cnc2c(ccc3ccccc32)c1Nc1ccc(OCC)cc1 -20.5%, CCOc1ccc(Nc2cc(C)nc3nc(Cc4ccc(Cl)cc4)nn23)cc1 -20.7%, Cc1ccc(-n2nc3c(N4CCC(C(=O)NC(C)c5ccccc5)CC4)nnc(C)c3c2C)cc1 (centres undefined) -21.9%, O=C(Cn1ccc2ccccc2c1=O)NCCC(=O)Nc1ccc(F)cc1F -21.1%, COc1ccccc1N1CCN(C(=O)c2c(C)oc3ncn(CC(C)C)c(=O)c23)CC1 11%, O=C(CCCl)NCCc1ccccc1 9.45%, CCN(CC)Cc1c(NC(=O)c2ccc(OC)cc2)sc2c1CCCC2 -1.06%, COc1ccc(CCNC(=O)Cn2c(=O)c3cccn3c3ccc(F)cc32)c(OC)c1 -4.81%, CC(=O)Nc1ccc(Nc2nc3c(S(=O)(=O)c4cccc(Cl)c4)nnn3c3ccsc23)cc1 -14.2%
